Source: PMC4336329 (PLoS ONE, 2015)
In all, about 310,000 compounds went through this assay and about 14,000 (4.5%) showed an effect of 50% or more. The effect is printed as a negative number. This is one part of the list.

What follows are compounds tested against human ether-à-go-go-related gene (hERG) potassium channel (human, UniProt Q12809) (assay: primary screen, population patch clamp on CHO cells stably expressing hERG).
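Further: peak tail current of the secondary pulse compared with the same well before compound.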

Chain of human ether-à-go-go-related gene (hERG) potassium channel (Q12809 whole entry, looked up): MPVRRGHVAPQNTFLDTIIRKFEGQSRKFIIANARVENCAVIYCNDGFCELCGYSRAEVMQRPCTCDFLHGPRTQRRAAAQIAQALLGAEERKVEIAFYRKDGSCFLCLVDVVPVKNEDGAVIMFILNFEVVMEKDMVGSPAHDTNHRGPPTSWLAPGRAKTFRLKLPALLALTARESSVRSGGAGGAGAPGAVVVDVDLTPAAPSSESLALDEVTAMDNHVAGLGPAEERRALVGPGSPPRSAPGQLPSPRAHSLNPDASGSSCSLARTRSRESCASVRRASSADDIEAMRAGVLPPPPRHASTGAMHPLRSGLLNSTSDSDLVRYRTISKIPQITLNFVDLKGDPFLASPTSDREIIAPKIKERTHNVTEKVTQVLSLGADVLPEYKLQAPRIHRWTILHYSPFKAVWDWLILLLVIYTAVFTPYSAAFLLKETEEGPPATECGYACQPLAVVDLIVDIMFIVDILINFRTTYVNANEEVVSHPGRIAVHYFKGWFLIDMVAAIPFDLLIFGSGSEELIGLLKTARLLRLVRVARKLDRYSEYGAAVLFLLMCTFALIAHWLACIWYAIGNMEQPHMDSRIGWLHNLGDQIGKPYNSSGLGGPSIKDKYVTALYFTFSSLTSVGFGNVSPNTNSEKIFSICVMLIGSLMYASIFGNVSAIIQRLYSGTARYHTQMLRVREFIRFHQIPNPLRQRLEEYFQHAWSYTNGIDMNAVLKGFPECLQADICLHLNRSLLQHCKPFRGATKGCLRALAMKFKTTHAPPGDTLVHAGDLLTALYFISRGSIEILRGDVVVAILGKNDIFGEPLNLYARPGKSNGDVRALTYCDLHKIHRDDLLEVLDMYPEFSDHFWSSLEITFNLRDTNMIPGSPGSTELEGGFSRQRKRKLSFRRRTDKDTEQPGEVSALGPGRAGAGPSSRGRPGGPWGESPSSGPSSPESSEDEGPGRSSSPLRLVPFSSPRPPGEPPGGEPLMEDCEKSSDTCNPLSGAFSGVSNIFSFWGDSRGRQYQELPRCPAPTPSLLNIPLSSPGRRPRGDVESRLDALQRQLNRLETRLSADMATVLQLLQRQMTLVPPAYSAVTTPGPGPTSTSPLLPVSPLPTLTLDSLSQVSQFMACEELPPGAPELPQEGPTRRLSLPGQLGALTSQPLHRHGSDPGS

`CCOC(=O)c1cnn(-c2ccc(NS(=O)(=O)c3ccc(Cl)cc3)cc2)c1C(F)(F)F` was tested. Which “hERG current change (%, negative = inhibition) at 10uM” value did it give?
Its value is 0.457%.

How did the “hERG current change (%, negative = inhibition) at 10uM” value turn out when `Clc1ccc(OCCCN2CCCCC2)c(Br)c1.O=C(O)C(=O)O` was run?
The value was -70.7%.

How did the “hERG current change (%, negative = inhibition) at 10uM” value turn out when `COc1ccc(NC(=O)CN(c2ccc([N+](=O)[O-])cc2)S(=O)(=O)c2ccccc2)c(OC)c1` was run?
Its value is -11.7%.

How did the “hERG current change (%, negative = inhibition) at 10uM” value turn out when `CC(C)Cc1nc(N2CCN(C(=O)c3ccco3)CC2)c(C#N)c2c1CCCC2` was run?
The value was 2.1%.

Which “hERG current change (%, negative = inhibition) at 10uM” value does the source give for `Cc1nc2ccccn2c1C(=O)NC1CCCc2ccccc21` (stereo not shown) here?
The value was 13.4%.

`O=C(NN1CCOCC1)c1ccc(F)cc1` was tested. Which “hERG current change (%, negative = inhibition) at 10uM” value did it give?
The value was 1.47%.

`CCCS(=O)(=O)c1nc(S(=O)(=O)c2ccc(C)cc2)c(NCc2ccc3c(c2)OCO3)s1` was tested. Which “hERG current change (%, negative = inhibition) at 10uM” value did it give?
The value was 15%.

`COc1ccc(C(C(=O)NC(C)(C)C)N(C(=O)CCC(=O)Nc2ccccn2)C2CCCCC2)cc1` (stereo not shown) was tested. Which “hERG current change (%, negative = inhibition) at 10uM” value did it give?
Its value is -13.6%.

Which “hERG current change (%, negative = inhibition) at 10uM” value does the source give for `CCN(CC(=O)Nc1ccc2c(c1)OCO2)Cc1nc2ccccc2c(=O)[nH]1` here?
Its value is -13.6%.

How did the “hERG current change (%, negative = inhibition) at 10uM” value turn out when `O=C(O)CSc1nc2ccc(C(=O)c3ccccc3)cc2[nH]1` was run?
The value was 17.2%.

For `Cc1[nH]c2c(C)cccc2c1CCNS(=O)(=O)c1cccc([N+](=O)[O-])c1`, which “hERG current change (%, negative = inhibition) at 10uM” value is on record?
The value was -1.47%.

Which “hERG current change (%, negative = inhibition) at 10uM” value does the source give for `CC(C)(C)Cc1nnc(NC(=O)CCc2ccccc2)s1` here?
Its value is 5.53%.

`CN(C)CCO[C@@H](c1ccc(Cl)cc1)c1ccccn1.O=C(O)/C=C\C(=O)O` was tested. Which “hERG current change (%, negative = inhibition) at 10uM” value did it give?
The value was -29.5%.

Which “hERG current change (%, negative = inhibition) at 10uM” value does the source give for `O=C(Cc1cccs1)N/N=C/C=C\c1ccco1` here?
Its value is 11.1%.

`O=C(NCc1ccccc1Cl)c1cccc(OC2CCN(C(=O)C3CC3)CC2)c1` was tested. Which “hERG current change (%, negative = inhibition) at 10uM” value did it give?
The value was -19.4%.

How did the “hERG current change (%, negative = inhibition) at 10uM” value turn out when `CCCc1nc2ccc(NC(=O)c3cccs3)cc2c(=O)n1Cc1ccc(Cl)cc1` was run?
The value was 1.44%.

With `O=C(c1ccc(Cl)cc1)N1CCC(O)(CSc2ccc(Cl)cc2Cl)CC1` as the compound, how does the “hERG current change (%, negative = inhibition) at 10uM” value read?
Its value is -15.1%.

With `O=C(NCc1ccco1)C(=S)N1CCCCC1` as the compound, how does the “hERG current change (%, negative = inhibition) at 10uM” value read?
The value was 22.6%.

Which “hERG current change (%, negative = inhibition) at 10uM” value does the source give for `COC(=O)c1ccc(N2C(=O)C3C4C=CC(CC4)C3C2=O)cc1` (stereo not shown) here?
The value was 19.3%.

For `O=c1c2ccccc2ncn1Cc1cccc2ccccc12`, which “hERG current change (%, negative = inhibition) at 10uM” value is on record?
Its value is 7.64%.

For `Cc1ccccc1NC(=O)CCCN1C(=O)C2CC=CCC2C1=O` (stereo not shown), which “hERG current change (%, negative = inhibition) at 10uM” value is on record?
Its value is 7.49%.

`O=S(=O)(c1ccccc1)c1ncc(C(F)(F)F)cc1O` was tested. Which “hERG current change (%, negative = inhibition) at 10uM” value did it give?
Its value is 9%.

With `Cc1ccc(S(=O)(=O)NCC(=O)NCC(=O)OCC(=O)NC(=O)NC(C)(C)C)cc1C` as the compound, how does the “hERG current change (%, negative = inhibition) at 10uM” value read?
The value was 15%.

`O=C(COC(=O)Cn1[nH]c(=O)c2ccccc2c1=O)Nc1ccc2c(c1)OCO2` was tested. Which “hERG current change (%, negative = inhibition) at 10uM” value did it give?
The value was 4.31%.

Which “hERG current change (%, negative = inhibition) at 10uM” value does the source give for `Cc1cccc2c1CC(C)(C)N/C2=C\C(N)=O` here?
The value was 8.37%.

For `Cc1ccsc1/C=N\Nc1cn[nH]c(=O)c1Cl`, which “hERG current change (%, negative = inhibition) at 10uM” value is on record?
The value was 14.2%.

How did the “hERG current change (%, negative = inhibition) at 10uM” value turn out when `CSc1ncc(Cl)c(C(=O)Nc2nnc(SC)s2)n1` was run?
Its value is -38.7%.

With `O=C(N/N=C/c1ccccn1)c1ccc(S(=O)(=O)N2CCCCCC2)cc1` as the compound, how does the “hERG current change (%, negative = inhibition) at 10uM” value read?
Its value is 11.2%.

`C=C[C@H](CC(C)C)N(Cc1ccccc1)S(=O)(=O)N(Cc1ccc(OC)cc1)[C@H](C=C)CC(C)C` was tested. Which “hERG current change (%, negative = inhibition) at 10uM” value did it give?
Its value is -23%.

Which “hERG current change (%, negative = inhibition) at 10uM” value does the source give for `CSCCOC(=O)COc1ccc(/C=N/NC(=O)c2c(Cl)cnn2C)cc1` here?
Its value is 3.85%.

For `COc1ccc(CNC(=O)CCCn2ncn3c(cc4occc43)c2=O)cc1`, which “hERG current change (%, negative = inhibition) at 10uM” value is on record?
The value was -22.4%.

With `CCN(CC)c1ccc(S(=O)(=O)N2CCOCC2)cc1NC(=O)CSc1cccc[n+]1[O-]` as the compound, how does the “hERG current change (%, negative = inhibition) at 10uM” value read?
Its value is 3.89%.

How did the “hERG current change (%, negative = inhibition) at 10uM” value turn out when `CCOC(=O)N1CCC(NC(=O)CC2C(=O)NCCN2Cc2ccccc2)CC1` (stereo not shown) was run?
The value was -1.48%.

For `CCCCCN(C(=O)CCC(=O)OCc1cccc(C)c1)c1c(N)n(CCCC)c(=O)[nH]c1=O`, which “hERG current change (%, negative = inhibition) at 10uM” value is on record?
Its value is 1.51%.

How did the “hERG current change (%, negative = inhibition) at 10uM” value turn out when `COc1ccc(Nc2ccncc2[N+](=O)[O-])cc1` was run?
Its value is -11.5%.

`CCN1C(=O)C(O)(CC(=O)c2cccc(-n3cccc3)c2)c2ccccc21` (stereo not shown) was tested. Which “hERG current change (%, negative = inhibition) at 10uM” value did it give?
Its value is -4.08%.

For `CSCC(C)N1CCC(CO)(CCCc2ccccc2)CC1` (stereo not shown), which “hERG current change (%, negative = inhibition) at 10uM” value is on record?
The value was -55.7%.

For `COc1cc(-c2n[nH]c(=S)n2-c2ccccc2C(F)(F)F)cc(OC)c1OC`, which “hERG current change (%, negative = inhibition) at 10uM” value is on record?
The value was 6.38%.

How did the “hERG current change (%, negative = inhibition) at 10uM” value turn out when `CCN(CC)CCC(=O)N1c2ccccc2CCc2ccc(NC(=O)OC)cc21.Cl` was run?
Its value is -8.57%.

How did the “hERG current change (%, negative = inhibition) at 10uM” value turn out when `O=C(O)CCC(=O)Nc1ccc(-c2nc3ccc(C(=O)c4ccccc4)cc3[nH]2)cc1` was run?
The value was 20.2%.

`CCCCNc1c(-c2ccc(SC(C)CC)c(OC)c2)nc2ccc(C)cn12.O=C(O)C(F)(F)F` (stereo not shown) was tested. Which “hERG current change (%, negative = inhibition) at 10uM” value did it give?
The value was -2.22%.

How did the “hERG current change (%, negative = inhibition) at 10uM” value turn out when `CCC(C)(C)n1nnnc1CN1CCC(NC(=O)c2ccc(Br)cc2)CC1` was run?
Its value is -39.2%.

`CN=C1CN(O)C(c2ccccc2)=c2cc(Cl)ccc2=N1` was tested. Which “hERG current change (%, negative = inhibition) at 10uM” value did it give?
Its value is 18.6%.

Which “hERG current change (%, negative = inhibition) at 10uM” value does the source give for `Cc1ccc(-n2nc(C)c(C(=O)O)n2)c(C)c1` here?
The value was -4.08%.

How did the “hERG current change (%, negative = inhibition) at 10uM” value turn out when `CC(C)CN1C(=O)c2ccc(NC(=O)C3CC3)cc2C1=O` was run?
The value was 5.04%.

For `CCCCNS(=O)(=O)c1ccc2nc(SCC(=O)Nc3cc(C)cc(C)c3)[nH]c2c1`, which “hERG current change (%, negative = inhibition) at 10uM” value is on record?
Its value is 10.4%.

For `CC(C(=O)N1CCc2ccccc21)N(C)CC(=O)Nc1ccccc1Cl` (stereo not shown), which “hERG current change (%, negative = inhibition) at 10uM” value is on record?
Its value is -29.2%.

How did the “hERG current change (%, negative = inhibition) at 10uM” value turn out when `CCCN1C(=O)SC(CC(=O)Nc2cccc3ccccc23)C1=O` (stereo not shown) was run?
The value was 10.8%.

Which “hERG current change (%, negative = inhibition) at 10uM” value does the source give for `O=C(CCOc1ccccc1)Nc1cccc([N+](=O)[O-])c1` here?
Its value is -19.8%.

How did the “hERG current change (%, negative = inhibition) at 10uM” value turn out when `CN(c1ccccc1)S(=O)(=O)c1cccc(NC(=O)c2ccc(=O)[nH]c2)c1` was run?
The value was -11.7%.

How did the “hERG current change (%, negative = inhibition) at 10uM” value turn out when `COc1ccc(CNC(=O)c2ccccc2SCC(=O)NCc2ccco2)cc1` was run?
Its value is -31.3%.

For `CC(=O)c1cccc(N(CC(=O)NC2CCCC2)C(=O)c2csnn2)c1`, which “hERG current change (%, negative = inhibition) at 10uM” value is on record?
Its value is 15.7%.

`Cc1c(C(=O)NC(C)C)sc2ncn(CC(=O)N3CCC(C)CC3)c(=O)c12` was tested. Which “hERG current change (%, negative = inhibition) at 10uM” value did it give?
The value was 3.27%.

How did the “hERG current change (%, negative = inhibition) at 10uM” value turn out when `CCOc1cc(/C=N/NC(=O)c2ccc(=O)n(C)c2)ccc1O` was run?
Its value is 1.61%.

Which “hERG current change (%, negative = inhibition) at 10uM” value does the source give for `CCN1CCN(Cc2c(O)ccc3c2O/C(=C\c2ccccc2)C3=O)CC1` here?
The value was -3.69%.
